Data published in a collection of fitness landscapes (doi:10.1016/j.celrep.2020.107928).
The full ranking holds about 81,000 sequences; the median of “one-hybrid fitness for binding parS DNA” is about -0.17, and the highest 2% start at about 0.51. The list shows a part of the results.

B1: Caulobacter ParB omega fusion; a variant is named by its letters at X, in order, B8GW30 (parent)
chain: MESVVVGEPGMSEGRRGLGRGLSALLGEVDAAPAQAPGEQLGGSREAPIEILQRNPDQPRRTFREEDLEDLSNSIREKGVLQPILVRPSPDTAGEYQIVAGERAWRAAQRAGLKTVPIMVRELDDLAVLEIGIIENVQRADLNVLEEALSYKVLMEKFERTQENIAQTIGKSXSHVANXMRLLXLPDEVQSYLVSGELTAXHARAIAAAADPVALAKQIIEGGLSVRETEALARKAPNLSAGKSKGGRPPRVKDTDTQALESDLSSVLGLDVSIDHRGSTGTLTITYATLEQLDDLCNRLTRGI

Variants of: B1
Test: one-hybrid fitness for binding parS DNA (scaled: cognate 1, non-cognate 0); higher = stronger binding
Details: with parS DNA site
How it was run: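 Fitness is the rescaled log change in variant-to-wild-type read ratio, measured by Illumina sequencing of plasmids before and after bacterial one-hybrid selection. The scale puts cognate at 1 and non-cognate at 0. Selection of Caulobacter ParB libraries, four specificity codons randomised, took place in E. coli USO with a HIS3 reporter, site 19 bp from the promoter, over 48 hours at 37°C on M9-minus-histidine with 0.1 mM IPTG and 5 mM 3-AT.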

Variant	one-hybrid fitness for binding parS DNA
DPRM	≤ 0.2
QKVQ	≤ 0.2
PVRI	≤ 0.2
PLLW	≤ 0.2
NTSW	≤ 0.2
SKLR	≤ 0.2
RLHQ	≤ 0.2
HMRG	≤ 0.2
TIKV	≤ 0.2
HAQM	≤ 0.2
GMAG	≤ 0.2
NRVE	≤ 0.2
NLVV	≤ 0.2
YWSM	≤ 0.2
TELT	≤ 0.2
VWRS	≤ 0.2
CQTY	≤ 0.2
RGDW	≤ 0.2
AWSV	≤ 0.2
KFTG	≤ 0.2
CFLR	≤ 0.2
CPTS	≤ 0.2
HHKA	≤ 0.2
QLQK	≤ 0.2
RIWT	0.83
QQDL	≤ 0.2

Variant	one-hybrid fitness for binding parS DNA
WWER	≤ 0.2
NYSD	≤ 0.2
NISS	≤ 0.2
YRGT	≤ 0.2
WTTL	≤ 0.2
SVCD	≤ 0.2
PYES	≤ 0.2
IVAL	≤ 0.2
HATV	≤ 0.2
TVAM	≤ 0.2
QHPF	≤ 0.2
VHSL	≤ 0.2
WANR	≤ 0.2
PFDY	≤ 0.2
AYCT	≤ 0.2
VWKY	≤ 0.2
WHGC	≤ 0.2
CLNR	≤ 0.2
HTDG	≤ 0.2
GPCG	≤ 0.2
HVDG	≤ 0.2
AEGR	≤ 0.2
FTQG	≤ 0.2
TAHM	≤ 0.2
NLAV	≤ 0.2
IRGH	≤ 0.2

Variant	one-hybrid fitness for binding parS DNA
RDTR	≤ 0.2
QTGC	≤ 0.2
VAGD	≤ 0.2
CAGC	≤ 0.2
AAQS	≤ 0.2
CQVK	≤ 0.2
GGRG	≤ 0.2
RGHH	≤ 0.2
ELYC	≤ 0.2
WLLD	≤ 0.2
HYDT	≤ 0.2
SYFL	≤ 0.2
PGDS	≤ 0.2
LVYP	≤ 0.2
FAAI	≤ 0.2
YHES	≤ 0.2
KGHM	≤ 0.2
MRKY	≤ 0.2
NCAI	≤ 0.2
PTSF	≤ 0.2
MPCG	≤ 0.2
RGLP	≤ 0.2
QLSK	≤ 0.2
RHKA	0.692
HCAY	≤ 0.2
FRYG	≤ 0.2

Variant	one-hybrid fitness for binding parS DNA
GLHR	≤ 0.2
YKTA	≤ 0.2
YVAT	≤ 0.2
PCDR	≤ 0.2
PHQS	≤ 0.2
GTVL	≤ 0.2
DYYG	≤ 0.2
FRNM	≤ 0.2
RHFD	≤ 0.2
QMWH	≤ 0.2
QSMV	≤ 0.2
LSKC	≤ 0.2
QWKD	≤ 0.2
WNRT	≤ 0.2
WAVV	≤ 0.2
SFSV	≤ 0.2
WLGT	≤ 0.2
EWHL	≤ 0.2
HSIS	≤ 0.2
KMPR	≤ 0.2
TSAN	≤ 0.2
LSES	≤ 0.2
QNRI	≤ 0.2
LVHG	≤ 0.2
QNDI	≤ 0.2
PIPT	≤ 0.2

Variant	one-hybrid fitness for binding parS DNA
GDGT	≤ 0.2
LCGT	≤ 0.2
WVMR	≤ 0.2
DYLK	≤ 0.2
MWML	≤ 0.2
HVCR	≤ 0.2
QECG	≤ 0.2
HPSY	≤ 0.2
TAGG	≤ 0.2
QRCT	≤ 0.2
DLFR	≤ 0.2
LERS	≤ 0.2
RRCM	≤ 0.2
ISLC	≤ 0.2
TRSG	≤ 0.2
HQWY	≤ 0.2
EHAG	≤ 0.2
AAIR	≤ 0.2
KFER	≤ 0.2
HKVT	≤ 0.2
MQPF	≤ 0.2
CCSG	≤ 0.2
VWIT	≤ 0.2
PQHC	≤ 0.2
SKRI	≤ 0.2
SEAE	≤ 0.2

Variant	one-hybrid fitness for binding parS DNA
PVYE	≤ 0.2
QSQV	≤ 0.2
NCTD	≤ 0.2
CTSI	≤ 0.2
GSAT	≤ 0.2
ADHY	≤ 0.2
RQVL	≤ 0.2
LSNV	≤ 0.2
QTCK	≤ 0.2
FQRN	≤ 0.2
VLMV	≤ 0.2
SNPC	≤ 0.2
THMM	≤ 0.2
MIQC	≤ 0.2
SKRC	≤ 0.2
QPPM	≤ 0.2
VIYV	≤ 0.2
RTGL	≤ 0.2
TALR	≤ 0.2
SMLW	≤ 0.2
ITDL	≤ 0.2
PKPY	≤ 0.2
QVNR	≤ 0.2
